In the supplement of paper PMC11417369:
The other results are listed elsewhere or left out.

What follows are sequences tested on PF3D7_0420300 AP2 domain 1 (GST-tagged) (assay: gcPBM binding intensity (ln(normalized median fluorescence intensity)); higher = stronger DNA binding).
Summary of the method: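 GST-tagged P. falciparum DNA-binding domains, expressed in E. coli (about 25 μg on average), were applied for 1 h to an Agilent 4 × 180k array of primer-extended double-stranded 36-bp intergenic genomic probes plus negative controls. The binding buffer was 1× PBS with 1% milk, 0.2 mg/ml BSA, 0.5% salmon testes DNA and 0.03% Triton X-100. Bound protein was detected with Alexa488 anti-GST antibody and scanned at 488 nm. Binding intensity is the highest Masliner-normalised natural-log median intensity across replicate spots of either probe orientation.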

Sequence | gcPBM binding intensity (ln)
AAAAAAGAAAAAAGGACACACATAAATATACACCCG [CACACA_site5590] | 9.75
CACAAAAATAAACACACACACATATATATATATATA [CACACA_site4704] | 9.75
AGAATATAATTTTTATGTACATATATTAAATATATT [XGTACX_site8521] | 9.19
ACTTTTATTATTTATATACACACTTGCTGAAATGTT [CACACA_site3637] | 9.81
AGTTATAAAATATTTGCATGTAAATATATTATCTAT [TGCATGCA_site1015] | 9.22
TTTTTTTTTTTTAGAGTACACACTTTTTTACATTTA [CACACA_site3836] | 9.28
GTTGAAAATACAGAACGTACACGTTTGCCATATTGT [XGTACX_site2254] | 9.22
TATGAAATGCTCCAATCACACATGAATGTAATATAT [CACACA_site5458] | 9.17
ATATGATTTATAAAGTGTACCTTATTATAAGAAACA [XGTACX_site7914] | 9.11
TAAGATGATATAGACTGTACATATTGAACTTACAAG [XGTACX_site4290] | 9.21
ATTCATATTAAATATATATATATATATATATATATA [CACACA_negctrl_site484] | 8.96
GAAGAAAAAGAAAAAAGTACATATATTATATTATAA [XGTACX_site7870] | 9.04
GTTTTTAAATATGCCATACACACTACTATATAATAA [CACACA_site1927] | 9.53
TAATATATTAATTTTTGTACTTAATTATATGTTTTT [XGTACX_site5654] | 9.31
TAATATATTATGAGGGGTACATAATATGGTTTATTG [XGTACX_site8301] | 9.34
ATATTTATATTTATGTGTACATATGAAATAATTATT [XGTACX_site7765] | 9.14
ATATCTTATATCTTCACACATACACAATAAATACAT [CACACA_site5028] | 9.55
CTAAGAAGTATTTACACACCAACAAGGCGAAAAAAA [CACACA_site2945] | 9.58
AATGTATTCTCTCATGCACACTTTCTTTAAGGGACC [CACACA_site5245] | 9.31

Sequence | gcPBM binding intensity (ln)
ATTTTTATTTTATATACACACAATAATACTAGAATA [CACACA_site7810] | 9.38
AGATATATAAAATATACACACAGTAATATTTATATA [CACACA_site6767] | 9.31
ATATATATCTACATATGTACATATATACATTACACA [XGTACX_site7210] | 9.41
ATTTCATATGGTCAACGTACTCATGCATCCCTCCTT [XGTACX_site437] | 9.22
AATTATATTTGAAATACACACATAAAAACCATATAG [CACACA_site7598] | 9.73
TCAAAAAAGACACACCGTACATACTATTTGGACAGG [XGTACX_site7699] | 9.56
TTTATTTTATCATTTGCACACGCACCCCCACATAAA [CACACA_site8007] | 9.67
TTCTAAATTAATAATACACACTTGCTAAAATCATTA [CACACA_site5733] | 9.09
TTCTTATATTGTACAGTACACACCTTTATAATGTTA [CACACA_site7953] | 9.66
ATATAAATAACGTGTACACACATATGTATTTATATA [CACACA_site6520] | 9.5
ATTCTCCATGTTTGATGTACTCATATGACGACGGAG [XGTACX_site4923] | 9.23
TTTTTATGATTATACTTATATAATTTCATGATTGAA [CACACA_negctrl_site228] | 8.98
AATATTTCTATATGAACATGCAATGTATCTTTTTAT [TGCATGCA_site738] | 9.13
AATACTTACCAAAATACACACACACCCAAAATATAT [CACACA_site8559] | 10.1
AAGATGAACCTTTACACATGCAACAAAAAATATACA [TGCATGCA_site166] | 9.43
ATCAACATTATGTTTAGTACTTAGTGAATTGTTAAT [XGTACX_site4913] | 9.22
ATATATATATATATATGTACATATTTACATTTTGTA [XGTACX_site3529] | 9.17
AATAAAGGAGCCTATGAACACACACCGGTACATATA [CACACA_site9352] | 9.83
TATACACATTCGCGTTGTACAAAAAAAAAAAAAAAG [XGTACX_site2880] | 9.05

Sequence | gcPBM binding intensity (ln)
ATAAAAAAAAGAAAAACACACACATATATATATATA [CACACA_site8243] | 9.61
ATAATAATAGTAATATGTACATATATATATATATAT [XGTACX_site7437] | 9.53
ATAATAAAATAAATCACACATAATATAATGTAATAT [CACACA_site6144] | 9.55
ACAAAAAAATAAAATATATATATATATATAATATAT [CACACA_negctrl_site805] | 9.2
GAATTTTTGACGATATAGGAAATAATTATCCTGAAG [XGTACX_negctrl_site61] | 8.89
CTGTTAATTATATATTGTACAAAAGATATGATTATA [XGTACX_site6927] | 9.04
TGGACCAAACGACAAAAAAAAAGCAGAAAACAAAAA [GTGCAC_negctrl_site693] | 9.49
AAATAAAGAATATAAATACACACTTAAATATATATT [CACACA_site4007] | 9.59
TTTTTAAAAAAAAAAAAATAAAAAAAAAAAAAATAT [XGTACX_negctrl_site7] | 9
ATTTATATATTTATATGTACATATCTATACATATAT [XGTACX_site7580] | 9.41
ATTAAGTCTTATATTACACACGACATTGTAATGTAA [CACACA_site528] | 9.29
ATTCCACTGTTTTAGTGTACTGGTCGTTTTTTTTTT [XGTACX_site1738] | 9.91
AATTTTTTATACACAAGTACAAACGCGTAGTCACTT [XGTACX_site2458] | 9.19
AAAAATAAAACAATTACACACATAATTTTATTTTTA [CACACA_site928] | 9.61
TCCAAAATATCCTTCACACACGAACAGTTTCATTTA [CACACA_site5511] | 9.54
ATATATATATATATATGTACATATAATTTTTTTTTT [XGTACX_site6948] | 9.06
TTTATATTAATTTGTGTAAATGCATATGATGAGCAT [XGTACX_negctrl_site254] | 9.03
TAAATTTTTTTTTTGATGCACTTAGTTATTATATTT | 9.33
